Measurements from the supplement of paper PMC3334620.
Whole data set: some 33,000 sequences, median “E-score (-0.5 to 0.5)” near -0.04, cut for the highest 2% near 0.36. This is one part of the list.

Biological target: T1, Hmlalpha2 (UniProt P0CY09)
T1 sequence: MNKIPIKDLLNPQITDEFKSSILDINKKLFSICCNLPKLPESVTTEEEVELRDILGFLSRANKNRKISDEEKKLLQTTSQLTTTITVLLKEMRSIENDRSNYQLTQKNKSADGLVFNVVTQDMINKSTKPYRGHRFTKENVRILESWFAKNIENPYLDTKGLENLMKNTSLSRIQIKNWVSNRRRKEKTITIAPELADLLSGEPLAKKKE
Experiment: PBM E-score (8-mer binding enrichment) (E-score (-0.5 to 0.5)); higher = stronger / more preferred TF binding; most listed sequences are background and not binding sites
Settings: protein concentration: 200 nM; construct: GST-full length
Summary of the method: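 GST-tagged yeast TFs (full-length or DNA-binding domain) were made by PURExpress in vitro transcription/translation and applied at about 100-200 nM to universal all-10-mer Agilent arrays. The arrays were made double-stranded by primer extension, on fresh or once-stripped slides. Bound protein was detected with fluorescent anti-GST, and scans were normalised with masliner. Each ungapped eight-base word, pooled with its reverse complement, received an E-score (modified Wilcoxon-Mann-Whitney statistic) from the Universal PBM Analysis Suite.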

| Sequence | PBM E-score |
| --- | --- |
| AACTGAGA | 0.0995 |
| ATTCAAGG | -0.146 |
| GATGATAA | 0.0849 |
| CCCAATCG | -0.265 |
| ACCAGCGT | -0.0531 |
| ATACTAGG | 0.00454 |
| AAAAGGTG | -0.00979 |
| AAGGGCCC | -0.209 |
| ATCACGCG | 0.144 |
| TAGCACCA | -0.111 |
| CGCAACTC | -0.00762 |
| GCGAGTCA | -0.0741 |
| AGGTTAGG | -0.2 |
| AACAAAAA | 0.125 |
| ACCCAGGT | -0.29 |
| GAACGCAA | 0.114 |
| ACGGAAAT | 0.161 |
| CTTGCGAA | 0.184 |
| ACTGCGTC | 0.0279 |
| ACTCGTTC | 0.141 |
| ATCGTCGG | -0.285 |
| CTTGCATC | -0.144 |
| ATGCCGCC | -0.0688 |
| AGTATAGG | -0.226 |
| CTAATAAC | 0.203 |

| Sequence | PBM E-score |
| --- | --- |
| CCAGCGAC | -0.0419 |
| CATGCAAC | 0.228 |
| AAAAGACC | -0.185 |
| ACTCTTTA | 0.129 |
| AATGCGTA | 0.281 |
| GTGCGTGA | 0.192 |
| AGCGACTA | 0.0805 |
| CTCGCGCC | -0.186 |
| CAAGGCTA | 0.0464 |
| ACATCCTA | 0.127 |
| AAGTAGGT | 0.0392 |
| GTGTAAAA | 0.467 |
| ATTTTAAA | 0.164 |
| ATGCGGGA | -0.0343 |
| CTCCTATC | -0.139 |
| GGTCTATA | 0.121 |
| AGTGGGCC | -0.171 |
| AGTGCTTA | 0.0606 |
| CTTGCCAC | -0.172 |
| GTTGGGCA | 0.0913 |
| GGTATTGA | -0.045 |
| GCCTTTAC | 0.213 |
| AATACACT | 0.326 |
| CCAGGCAG | -0.272 |
| CCCTGCCA | -0.217 |

| Sequence | PBM E-score |
| --- | --- |
| AAATCGTT | 0.0182 |
| ACAAATAG | 0.161 |
| CACCCCAA | 0.0467 |
| CCCGTTTA | 0.123 |
| ACGTTTTA | 0.266 |
| GACTATAC | -0.00437 |
| TACCTTAA | -0.0463 |
| CAGTCAGA | -0.0744 |
| ACAGAGCT | 0.0441 |
| CCGGGGGC | -0.224 |
| CCGTATAA | 0.0386 |
| ATTAAGAA | 0.193 |
| ACAGAGTA | 0.226 |
| ATCGCCTA | -0.285 |
| GGGTACCA | -0.0469 |
| ATCCAGAA | 0.129 |
| AATAAGGC | -0.158 |
| GAGAAATA | 0.13 |
| GGACCTCC | -0.192 |
| ATTCTCCC | -0.066 |
| CAGTCTGA | -0.214 |
| CGGTCGAA | -0.116 |
| GCATTAGC | -0.217 |
| CTTTGAAC | -0.0263 |
| AAGTCAAG | -0.197 |

| Sequence | PBM E-score |
| --- | --- |
| CCATTCCG | -0.225 |
| ATGTTCTG | 0.194 |
| TCAAACAA | 0.217 |
| CACTTCAC | 0.0895 |
| AGCGCAAC | -0.083 |
| CGGATTGC | -0.163 |
| GCTATTGA | 0.0255 |
| CATTGTTC | 0.182 |
| AAAGTGCC | -0.179 |
| AATAGCCG | -0.0462 |
| ACTTCATA | 0.019 |
| CACGGATA | 0.118 |
| ACAGTGCA | 0.00831 |
| ACACATAT | 0.317 |
| CACTAAGG | -0.255 |
| CTGAGGTA | -0.013 |
| GCGTGATA | 0.0582 |
| CAATGACC | -0.169 |
| GCGTGTTA | 0.46 |
| CCACTTTA | -0.136 |
| CCCTAACG | -0.0128 |
| CCAAATTA | 0.192 |
| AAACCGAA | -0.0136 |
| GTTGCTTA | 0.0629 |
| CGAGTTTA | -0.0376 |

| Sequence | PBM E-score |
| --- | --- |
| AACTTTGC | 0.0158 |
| AACATCCG | 0.203 |
| TCAGCTGA | 0.113 |
| ACCATCCG | -0.207 |
| ATGAGCAG | 0.00596 |
| ACTTTGCG | -0.0412 |
| ATGCCGGG | -0.146 |
| CCTACACA | 0.266 |
| ACCCATCG | -0.101 |
| AATTATAC | 0.155 |
| AAAAGAGA | -0.151 |
| ACGGTAGA | -0.22 |
| CGGATGAG | -0.179 |
| AGACAACG | 0.123 |
| ACGTGTCT | 0.193 |
| CCGAGGAA | -0.098 |
| GCCTCGCA | -0.259 |
| AATCCACT | -0.029 |
| CTAAGGCC | -0.194 |
| CATGTAAG | 0.47 |
| CACAAGTA | 0.101 |
| AGAGATCG | -0.168 |
| AACCGCTC | -0.0841 |
| AGAAGCAA | 0.0263 |
| AGGATTGG | -0.0838 |

| Sequence | PBM E-score |
| --- | --- |
| CCCAACCG | -0.285 |
| ACAATACG | 0.22 |
| CGACTTCA | -0.0985 |
| ACACACTG | 0.159 |
| ACCATCGC | 0.0727 |
| ACTTTTGA | 0.0828 |
| TCTTAGAA | 0.0836 |
| CACTTATA | -0.011 |
| GGAGAGTA | -0.252 |
| ACTGCAAG | -0.041 |
| CCAGAGTA | -0.121 |
| CTGCCAGC | -0.238 |
| GCGTATAA | 0.337 |
| GTAGACAA | 0.255 |
| CATATTCG | -0.065 |
| AGTTTGTC | 0.0591 |
| AGTTACCG | 0.155 |
| ACGGTATG | 0.0304 |
| ATCGCTAC | -0.0269 |
| AAATCAAA | 0.073 |
| TGAACCAA | 0.171 |
| ACATCAAG | 0.227 |
| CTGATCCA | 0.0644 |
| ATCTATAG | -0.052 |
| AACTCCGG | 0.00054 |

| Sequence | PBM E-score |
| --- | --- |
| GAGTGCTA | -0.0626 |
| CGCGCTCC | -0.0594 |
| GCGGGTCC | -0.198 |
| CGTCCTTA | -0.133 |
| GCTATTCC | -0.108 |
| AACAAGCC | 0.133 |
| AAAGAGCG | -0.0726 |
| GCCCCACA | -0.224 |
| GAAGGAGC | -0.396 |
| ACATCTGG | -0.0314 |
| CTCCACGA | -0.0917 |
| CCAGGGCG | -0.184 |
| ATGCCTTG | 0.00843 |
| GAATTGAC | 0.104 |
| AATATAGG | -0.00425 |
| TCGAACAA | 0.14 |
| CTGGCTCA | -0.164 |
| CGTGGGAC | -0.0917 |
| ACCTCCTC | -0.127 |
| CCCTTCTC | -0.337 |
| GAATCTCC | -0.16 |
| CGCATCGC | -0.212 |
